From patent US20240376639A1 (ELASMOGEN, published 2024)

What was measured:
human TNF-alpha = biological target: T1, human TNF-alpha (human, UniProt P01375 in part); assay: SPRi (IBIS MX96); Quad-X amine coupled to the chip, human TNF-alpha passed over
T1 construct: also called TNFα; hTNF-alpha

Human Serum Albumin = biological target: T2, Human Serum Albumin (human, UniProt P02768); assay: binding ELISA on HSA coated control plate, detection with anti-HuFc-HRP
T2 construct: Non-target control antigen in the ELISAs; also called HSA

human TNF-alpha, sequence (P01375 77-233 limits assumed): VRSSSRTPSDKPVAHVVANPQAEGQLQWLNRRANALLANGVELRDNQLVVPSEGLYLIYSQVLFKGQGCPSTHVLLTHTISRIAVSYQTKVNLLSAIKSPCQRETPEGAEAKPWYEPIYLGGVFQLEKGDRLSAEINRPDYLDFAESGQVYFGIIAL

Kd (human TNF-alpha): 809 pM
binding result (Human Serum Albumin): no binding (tested: 10 µg/mL)
B1: SoloMER D1-Fc-C4 (VNAR FW4) Quad-X (Fc fusion)
chain: ARVDQSPSSLSASVGDRVTITCVLRDSHCATSSTYWYRKKSGSTNEESISKGGRYVETVNSGSKSFTLTISSLQPEDFATYYCASECQYGLAEYDVYGGGTVVTVNGSGGGSGGGGSG[not shown - human IgG1 Fc with changes]GGGGSGGGGSGGGGSGGGGSGGGGSARVDQSPSSLSASVGDRVTITCVLRDSNCGLSSTYWYRKKSGSTNEESISKGGRYVETINEGSKSFSLRINDLTVEDSGTYRCKLSWWTQNWRCSNSDVYGGGTVVTVN
notes: also called soloMER Quad-X (VNAR FW4); soloMER Quad-X VNAR FW4
